This note sets out measurements from PubChem BioAssay AID463173 (ICCB-Longwood Screening Facility, Harvard Medical School, 2010).

About 4,300 (8.3%) of roughly 52,000 compounds were called active. Rule as the data show it: active = survival mostly below about 52% (no sharp cut-off); inactive = mostly above about 56%. The list shows a part of the results.

The assay has as its system DeltatarO mutant. Description: growth inhibition of S. aureus wild type versus tarO mutant, primary screen, teichoic acid synthesis inhibitors, RN4220, OD600 (AID 463173). The conditions noted are these: OD600, 18 h, hits give low values, screened at 18.75 µg/mL (by protocol).
On to `O=C(CCCn1c(=O)[nH]c2ccsc2c1=O)N1CCN(c2cccc(C(F)(F)F)c2)CC1`, for which the survival is inactive: 73%. In the case of `Cc1cc(Cl)ccc1NC(=O)CN1C(=O)COc2ccc(S(=O)(=O)N3CCC(C)CC3)cc21` it was inactive: 101%; in that of `CCOC(=O)c1noc2ncn(Cc3cccc(C#N)c3)c(=O)c12`, inactive: 130%.

As for `Cc1c(C(=O)OC2CCC(C)CC2)[nH]c2c1C(=O)CC(c1ccccc1Cl)C2` (centres undefined), the survival is inactive: 81%.

For `CCOc1ccc(CCNC(=O)CCCc2nnc3n(C)c(=O)c4sccc4n23)cc1OCC`, the survival is inactive: 93%. The result for `COc1ccccc1CN(Cc1ccco1)c1cnc(S(C)(=O)=O)nc1C(=O)Nc1ccccc1Cl` reads active: 46%; that for `CCNc1nc(NC(C)CC)nc(Oc2ccc(OCC)nn2)n1` (centres undefined), inactive: 139%. The result for `COc1ccc(NC(=O)NCc2c(-n3cccc3)sc3c2CCCC3)c(OC)c1` reads inactive: 66%; that for `CCc1cccc(C)c1NC(=O)NC1COc2ccccc2C1` (centres undefined), inactive: 106%.

In the case of `COc1ccc(OCC(=O)Nc2nc(-c3ccc(Br)cc3)ns2)cc1`, the survival was inactive: 59%. As for `CCOc1ccc2c(c1)sc1nc(=O)n(-c3ccc(Cl)c(Cl)c3)c(=O)n12`, the survival is inactive: 88%. As to `CCOC(=O)CCn1cnc2onc(-c3cc(OC)ccc3Cl)c2c1=O`, the survival is inactive: 88%. In the case of `Cc1ccc(OCc2nc(-c3ccc(C(=O)N4CCN(c5cccc(C(F)(F)F)c5)CC4)cc3)oc2C)cc1` it was inactive: 71%; in that of `N#CC(C#N)=Cc1ccc(OCC(O)Cn2c3ccccc3c3ccccc32)cc1` (centres undefined), inactive: 75%.

For `CSc1cccc(NC(=O)C2CCN(S(=O)(=O)c3ccc4c(c3)CCCN4C(=O)C3CCC3)CC2)c1`, the survival is inactive: 71%.

`COc1ccc(N(CC(C)C)S(=O)(=O)c2nnc(NC(=O)c3cccs3)s2)cc1`: the survival was active: 42%. Take `NS(=O)(=O)c1ccc(N(C(=O)Cn2nnc3ccccc32)C(C(=O)NC2CCCC2)c2cccs2)cc1` (centres undefined): the survival was inactive: 62%. In the case of `Cc1c(Cl)cccc1NC(=O)CNS(=O)(=O)c1cccs1` it was inactive: 86%.

For `Cc1cc(=O)[nH]c2nnc(SCc3c(F)cccc3Cl)n12`, the survival is inactive: 125%.

Regarding `CS(=O)(=O)NCC(c1ccco1)N1CCN(c2ccc(F)cc2)CC1` (centres undefined), the survival was inactive: 87%. In the case of `COCCNC(=O)CCn1c(=O)c2cc(OC)c(OC)cc2n(CC(=O)Nc2ccccc2C)c1=O` it was inactive: 93%; in that of `O=S(=O)(c1ccc(-c2cc(C(F)(F)F)on2)s1)N1CCN(c2ccccc2)CC1`, inactive: 75%.

Take `COc1ccc(CSc2nnc(C)s2)cc1F`: the survival is inactive: 106%. The result for `CCN(C(=O)CSc1nnc2scc(-c3cccc(OC)c3)n12)c1ccccc1` reads inactive: 94%.
